The RNAGym collection of RNA variant scans (doi:10.1073/pnas.2313332121)
Variants at the floor of the assay are shown more often than the library holds them.

B1: TPR 5TU (parent)
chain: GGAUCUUCUCGAUCUAACAAAAAAGACAAAUCUGCCACAAAGCUUGAGAGCAUCUUCGGAUGCAGAGGCGGCAGCCUUCGGUGGCGCGAUAGCGCCAACGUUCUCAACUAUGACACGCAAAACGCGUGCUCCGUUGAAUGGAGUUUAUCAUG

Variants of: B1
Assay: polymerase ribozyme fitness, log enrichment relative to wild type (log ratio); higher = more active; in vitro selection for triplet polymerase activity
Procedure, shortened: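 In triplicate, a single round of in vitro selection was run on each mutant library, PCR-built and transcribed, covering one subunit of a heterodimeric triplet polymerase ribozyme. Frozen incubation at −7 °C followed annealing with a biotinylated primer, partner subunit and triplets, and extended constructs were then gel-excised, streptavidin-captured and taken through RT-PCR. Fitness is the logarithm of genotype enrichment over wild-type enrichment, from inverse-variance-weighted replicate averages of Illumina-sequenced inputs and outputs. […] only genotypes with ≥10 input reads and ≥1 read per output were kept.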

Variant	polymerase ribozyme fitness (log ratio)
GGAUCUUCUCGAUCUAACAAAAAAGACAAAUCUGCCACAUAGCUUGAGAGCAUCUUCGGAUGCAGAGGCGGCAGCCUUCGGUGGCGUGAUUGCGCCAACGUUCUCAAGUAUGACGCGCAAAACGCGUGCUCCGUUGAAUGGAGUUUAUCAUG	≤ -4.2
GGAUCUUCUCGAUCUAACAAAAAAGACAAAUCUGCCACAUAGCUUGAGAGCAUCUUCGGAUGCAGAGGCGGCAGCCUUCGGUGGCGCGAUAGUGCCAACGUUCUCAACUGUGACACGCAAAACGCGUGCUCCGUUGAAUGGAGUUUAUAAUG	≤ -4.2
GGAUCUUCUCGAUCUAACAAAAAAGACAAAUCUGCCACAUAGCUUGAGAGCAUCUUCGGAUGCAGAGGCGGCAGCCUUCGGUGGCGCGAUAGCGUCAACGUUCUCAACUAUGACACGCAAAACGCGUGCUCCGUUGAAUGGAGUUUAUCAUG	-1.07
GGAUCUUCUCGAUCUAACAAAAAAGACAAAUCUGCCACAUAGCUUGAGAGCAUCUUCGGAUGCAGAGGCGGCAGCCUUCGGUGGCGCGAUAGCGUCAACGUUCUCAACUAUGACACGCAAAACCCGUGCUCCUUUGAAUGGAGUUUAUCAUG	≤ -4.2
GGAUCUUCUCGAUCUAACAAAAAAGACAAAUCUGCCACAUAGCUUGAGAGCAUCUUCGGAUGCAGAGGCGGCAGCCUUCGGUGGCGCGAUAGCGCGAACGUUCUCAACUAUGACACGCAAAACGCGUGCUCCGUUGUAUGGAGUUUAUUAUG	≤ -4.2
GGAUCUUCUCGAUCUAACAAAAAAGACAAAUCUGCCACAUAGCUUGAGAGCAUCUUCGGAUGCAGAGGCGGCAGCCUUCGGUGGCGCGAUAGCGCCAACGUUCUGAACUAUGACACGCAAAACGCGUGCUCCGUUGAAUGGAGUUUAUCAUG	-0.905
GGAUCUUCUCGAUCUAACAAAAAAGACAAAUCUGCCACAUAGCUUGAGAGCAUCUUCGGAUGCAGAGGCGGCAGCCUUCGGUGGCGCGAUAGCGCCAACGUUCUCAACUAUGAUACGCAACACGCGUGCUCCGUUGAAUGGAGUUUAUCAUG	-2.44
GGAUCUUCUCGAUCUAACAAAAAAGACAAAUCUGCCACAUAACUUGAGAGCAUCUUCGGAUGUAGAGGCGGCAGCCUUCGGUGGCGCGAUAGCGCCAACGUUCUCAACUAUGAUACGCCAAACGCGUGCUCCGUUGAAUGUAAUUUAUCAUG	≤ -4.2
GGAUCUUCUCGAUCUAACAAAAAAGACAAAUCUGCCACAUAACUUGAGAGCAUCUUCGGAUGCAGAGACGGCAGGCUUCGGUGGCGCGAUAGAGCCAACGUUCUCAACUAUGACACGCAAUACGCGUGCUCCGUUGAAUGGAGUUUAUCAUG	≤ -4.2
GGAUCUUCUCGAUCUAACAAAAAAGACAAAUCUGCCACAUACCUUGAGAGCAUCUUCGGAUGCAGAGGCGGCAGCCUUAGGUGGCGCGAUAGCGCCGACGUUCUCAACUAUGACACGCAAAACGCGUGCUCCGUUGAAUGCAGUUUAUCAUG	≤ -4.2
GGAUCUUCUCGAUCUAACAAAAAAGACAAAUCUGCCACAUACCUUGAGAGCAUCUUCGGAUGCAGAGGCGGCAGCCUUCGGUGGAGCGAUAGCGCCAACGUUCUCAACUAUGUCAAGCAAAACGCGUGCUCCGUUGAAUGGAGUUUAUCAUG	≤ -4.2
GGAUCUUCUCGAUCUAACAAAAAAGACAAAUCUGCCACAUACCUUGAGAGCAUCUACGGAUGCAGAGGCGGCAGCCUUCGGUGGAGCGAUAGCGCCAACGUUCUCAGCUAUGACACGCAAAACGCGUGCUCCGUUGAAACGAGUUUGUCAUG	≤ -4.2
GGAUCUUCUCGAUCUAACAAAAAAGACAAAUCUGCCACAUAGCUUGAGAACAUCUUCGGAUGCAGAGGCGGCAGCCUUCGGUGGCGCGAUAGAGCCAACGUUCUCAACUAUGACACGCAAAACGCGUGCUCCGUUGAAUGGAGUUUAUCGUG	≤ -4.2
GGAUCUUCUCGAUCUAACAAAAAAGACAAAUCUGCCACAUAGCUUGAGAUCAUCUUCGGCUGCAGAGGCGGCGGCCUUCGGUGGUGCGAUAGCGCCAACGUUCUCAACUAUGACACGCAAAACGCGUGCUCCGUUGAAUGGAGUUUAUCAGG	≤ -4.2
GGAUCUUCUCGAUCUAACAAAAAAGACAAAUCUGCCACAUAGCUUGAGAGCAUCUUCGGAUGCAAAGGCCGCAGCCUUCGGUGGCGCGAUAGCGCCAACGUGCUCAACUAUGACACGCAAGACGCGUGCUCCGUUGAAUGGAGUUUAUCAUG	≤ -4.2
GGAUCUUCUCGAUCUAACAAAAAAGACAAAUCUGCCACAUAGCUUGAGAGCAUCUUCGGAUGCAGAGCCGGCAGCCUUUGGUGACGCGAUAGCGCAAACGUUCUCAACUAUGACACGCAAAACGCGUGCUCCGUUGACUGGAGUUUAUCAUG	≤ -4.2
GGAUCUUCUCGAUCUAACAAAAAAGACAAAUCUGCCACAUAGCUUGAGAGCAUCUUCGGAUGCAGAGCCGGCAGCCAUCGGUGGCGCGAUAGCGCCAACGUUCUCAACUAUGACACGCAAAACACGUGCUCCGUUGAAUGGAGUUUAUCCUG	≤ -4.2
GGAUCUUCUCGAUCUAACAAAAAAGACAAAUCUGCCACAUAGCUUGAGAGCAUCUUCGGAUGCAGAGGCAGCAGCCUUCGGUGGCGCACUAGCGCCAACGUUCUCAAAUAUGACACGCAAAACGCGUGCUCCGUUGAAUGGAGUUUAUCAUG	≤ -4.2
GGAUCUUCUCGAUCUAACAAAAAAGACAAAUCUGCCACAUAGCUUGAGAGCAUCUUCGGAUGCAGAGGCCGCAGCCUUCGGUGGCGCGACAGCGCCAACGUUUUCAACUAUGACACGCAAAACGCGUGCUCCGUUGAAUGGAGUUUAUCAUG	≤ -4.2
